According to the supplement of paper PMC6609913:
Counter-ions that a name gives are not always drawn. ± gives the standard deviation of the averaged measurements. The full ranking holds about 1,300 compounds; the median of “normalised cell viability” is about 1, and the lowest 2% start at about 0.15. This is one part of the list.

Tested on: V-C8 + BRCA2 (BRCA2-proficient hamster cells)
Assay: normalised cell viability (fraction of plate median); higher = more viable cells (less toxic)
Details: 5 µM
In short: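 Library drugs, held as 10 mM stocks in DMSO, were diluted to 5 μM in 100 μl medium and added to 96-well plates of V-C8 hamster cells, either lacking BRCA2 or with BRCA2 restored, 24 h after seeding. Plates ran for 3 days (screen 1) or 6 days (screen 2), alongside solvent-only wells. Viability came from a resazurin readout, median-plate normalised, as the mean of triplicate wells.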

| Structure (SMILES) | normalised cell viability (treatment time: 3 days) | normalised cell viability (treatment time: 6 days) |
| --- | --- | --- |
| CCOc1nc2cccc(C(=O)O)c2n1Cc1ccc(-c2ccccc2-c2nnn[nH]2)cc1 [Candesartan] | 0.991 ± 0.082 | 1.03 ± 0.083 |
| C[C@@](Cc1ccc(O)c(O)c1)(NN)C(=O)O [Carbidopa] | 1.06 ± 0.075 | 1.03 ± 0.068 |
| Cn1c(=O)c2c(ncn2CC2OCCO2)n(C)c1=O [Doxofylline] | 1 ± 0.028 | 1.03 ± 0.034 |
| CN1CCN(CC(=O)N2c3ccccc3C(=O)Nc3cccnc32)CC1 [Pirenzepine dihydrochloride] | 1.13 ± 0.098 | 1.14 ± 0.03 |
| CN(CCCCCCCCCCN(C)C(=O)Oc1cccc([N+](C)(C)C)c1)C(=O)Oc1cccc([N+](C)(C)C)c1 [Demecarium bromide] | 1.01 ± 0.027 | 0.978 ± 0.027 |
| CC(=O)N(CC(O)CO)c1c(I)c(C(=O)NCC(O)CO)c(I)c(C(=O)NCC(O)CO)c1I (centres undefined) [Iohexol] | 1.05 ± 0.021 | 0.988 ± 0.028 |
| COC(=O)Nc1nc2cc(Sc3ccccc3)ccc2[nH]1 [Fenbendazole] | 0.183 ± 0.0078 | 0.179 ± 0.017 |
| Nc1ccc(S(=O)(=O)Nc2nccs2)cc1 [Sulfathiazole] | 0.988 ± 0.022 | 1 ± 0.065 |
| CC(CNC1CCCCC1)OC(=O)c1ccccc1 (centres undefined) [Hexylcaine hydrochloride] | 0.967 ± 0.028 | 1 ± 0.012 |
| Cc1ccc(-c2cc(C(F)(F)F)nn2-c2ccc(S(N)(=O)=O)cc2)cc1 [Celecoxib] | 1.06 ± 0.065 | 1.06 ± 0.051 |
| CC[C@H]1OC(=O)[C@H](C)[C@@H](O[C@H]2C[C@@](C)(OC)[C@@H](O)[C@H](C)O2)[C@H](C)[C@@H](O[C@@H]2O[C@H](C)C[C@H](N(C)C)[C@H]2O)[C@](C)(O)C[C@@H](C)CN(C)[C@H](C)[C@@H](O)[C@]1(C)O [Azithromycin] | 1.03 ± 0.039 | 0.955 ± 0.041 |
| C[C@@H]1CCC[C@H](C)N1NC(=O)c1ccc(Cl)c(S(N)(=O)=O)c1 [Clopamide] | 1.22 ± 0.11 | 0.9899 ± 0.0083 |
| CN[C@H]1CC[C@@H](c2ccc(Cl)c(Cl)c2)c2ccccc21 [Sertraline] | 0.701 ± 0.035 | 0.705 ± 0.018 |
| CC(=O)Nc1c(I)c(C(=O)N[C@H]2C(O)O[C@H](CO)[C@@H](O)[C@@H]2O)c(I)c(N(C)C(C)=O)c1I (some centres undefined) [Metrizamide] | 1.04 ± 0.07 | 1.02 ± 0.12 |
| CCN(CC)CCNC(=O)c1ccc(N)cc1 [Procainamide hydrochloride] | 1.09 ± 0.059 | 1 ± 0.036 |
| CNCC(O)c1ccc(O)c(O)c1 (centres undefined) [Racepinephrine HCl] | 0.962 ± 0.018 | 0.946 ± 0.02 |
| CCOC1O[C@H]([C@@H](COCc2ccccc2)OCc2ccccc2)[C@H](OCc2ccccc2)[C@H]1O (some centres undefined) [Tribenoside] | 0.9859 ± 0.0075 | 0.919 ± 0.019 |
| Clc1ccc2nsnc2c1NC1=NCCN1 [Tizanidine HCl] | 0.974 ± 0.026 | 1.03 ± 0.016 |
| CC(=O)Nc1nnc(S(N)(=O)=O)s1 [Acetazolamide] | 0.895 ± 0.068 | 1 ± 0.045 |
| Cc1cc2cc3c(C)cc(=O)oc3c(C)c2o1 [Trioxsalen] | 0.991 ± 0.036 | 0.818 ± 0.12 |
| CC(C)Oc1ccc2c(=O)c(-c3ccccc3)coc2c1 [Ipriflavone] | 0.993 ± 0.029 | 1.08 ± 0.11 |
| CCCCOc1cc(C(=O)OCCN(CC)CC)ccc1N [Benoxinate hydrochloride] | 1.29 ± 0.087 | 1.29 ± 0.011 |
| C[C@]12CC[C@@H]3c4ccc(O)cc4C[C@@H](CCCCCCCCC[S+]([O-])CCCC(F)(F)C(F)(F)F)[C@H]3[C@@H]1CC[C@@H]2O (some centres undefined) [Fulvestrant] | 0.671 ± 0.042 | 0.733 ± 0.011 |

| Structure (SMILES) | normalised cell viability (treatment time: 3 days) | normalised cell viability (treatment time: 6 days) |
| --- | --- | --- |
| CO/N=C(\C(=O)N[C@@H]1C(=O)N2C(C(=O)O)=C(COC(C)=O)CS[C@H]12)c1csc(N)n1 [Cefotaxime sodium salt] | 1.11 ± 0.094 | 1.1 ± 0.076 |
| CC(C)[C@H](N)C(=O)OCCOCn1cnc2c(=O)nc(N)[nH]c21 [Valacyclovir hydrochloride] | 1.04 ± 0.12 | 1.05 ± 0.046 |
| CN1CCN2c3ncccc3Cc3ccccc3C2C1 (centres undefined) [Mirtazapine] | 1.04 ± 0.045 | 1 ± 0.085 |
| CN(C(=O)CN(CCO)CC(=O)N(C)C(C)(C)Cc1ccccc1)C(C)(C)Cc1ccccc1 [Oxethazaine] | 0.326 ± 0.21 | 0.247 ± 0.038 |
| COC(=O)N/N=C/c1c[n+]([O-])c2ccccc2[n+]1[O-] [Carbadox] | 1.03 ± 0.017 | 0.978 ± 0.03 |
| COc1cc(NS(=O)(=O)c2ccc(N)cc2)ncn1 [Sulfamonomethoxine] | 1.01 ± 0.011 | 1.03 ± 0.02 |
| CC1(C)O[C@@H]2C[C@H]3[C@@H]4C[C@H](F)C5=CC(=O)C=C[C@]5(C)[C@@]4(F)[C@@H](O)C[C@]3(C)[C@]2(C(=O)CO)O1 [Fluocinolone acetonide] | 1.04 ± 0.034 | 1.16 ± 0.078 |
| Cc1cc(C)nc(NS(=O)(=O)c2ccc(N)cc2)n1 [Sulfamethazine sodium salt] | 1.04 ± 0.026 | 1.02 ± 0.04 |
| CC(C(O)c1ccc(O)cc1)N1CCC(Cc2ccccc2)CC1 (centres undefined) [Ifenprodil tartrate] | 0.995 ± 0.035 | 0.982 ± 0.024 |
| COc1ccc(Cl)cc1C(=O)NCCc1ccc(S(=O)(=O)NC(=O)NC2CCCCC2)cc1 [Glibenclamide] | 1.05 ± 0.051 | 0.818 ± 0.18 |
| CC#C[C@]1(O)CC[C@H]2[C@@H]3CCC4=CC(=O)CCC4=C3[C@@H](c3ccc(N(C)C)cc3)C[C@@]21C [Mifepristone] | 0.981 ± 0.086 | 0.98 ± 0.026 |
| CCCOc1ccccc1-c1nc2[nH]nnc2c(=O)[nH]1 [Zaprinast] | 1.11 ± 0.09 | 1.03 ± 0.018 |
| CCN(CC)C(=O)Nc1ccc(OCC(O)CNC(C)(C)C)c(C(C)=O)c1 (centres undefined) [Celiprolol HCl] | 1 ± 0.048 | 1.04 ± 0.11 |
| N[C@H]1CONC1=O [(S)-(-)-Cycloserine] | 1.04 ± 0.043 | 0.917 ± 0.29 |
| CCCCC1C(=O)N(c2ccccc2)N(c2ccc(O)cc2)C1=O (centres undefined) [Oxyphenbutazone] | 1.13 ± 0.35 | 0.825 ± 0.22 |
| COc1cc2nc(N3CCN(C(=O)C4COc5ccccc5O4)CC3)nc(N)c2cc1OC (centres undefined) [Doxazosin mesylate] | 0.937 ± 0.049 | 0.95 ± 0.0022 |
| CCN(CCCCOC(=O)c1ccc(OC)c(OC)c1)C(C)Cc1ccc(OC)cc1 (centres undefined) [Mebeverine hydrochloride] | 1.01 ± 0.019 | 0.949 ± 0.12 |
| Cc1cc(C(C)(C)C)cc(C)c1CC1=NCCN1 [Xylometazoline hydrochloride] | 1 ± 0.036 | 1.02 ± 0.02 |
| CCN(CC)C(=O)C1(c2ccccc2)CC1CN (centres undefined) [Milnacipran hydrochloride] | 0.956 ± 0.095 | 0.937 ± 0.048 |
| O=P(O)(O)C(O)(Cn1ccnc1)P(=O)(O)O [Zoledronic acid hydrate] | 1.04 ± 0.021 | 0.94 ± 0.083 |
| CCN(CC)CCOCCOC(=O)C1(c2ccccc2)CCCC1 [Carbetapentane citrate] | 0.163 ± 0.0089 | 0.181 ± 0.0049 |
| C=CCOc1ccccc1OCC(O)CNC(C)C (centres undefined) [Oxprenolol hydrochloride] | 1.05 ± 0.041 | 1.06 ± 0.059 |
| NC[C@H]1O[C@H](O[C@H]2[C@H](O)[C@@H](O[C@H]3O[C@H](CO)[C@@H](O)[C@H](N)[C@H]3O)[C@H](N)C[C@@H]2N)[C@H](N)C[C@@H]1O [Tobramycin] | 0.986 ± 0.053 | 1.03 ± 0.036 |

| Structure (SMILES) | normalised cell viability (treatment time: 3 days) | normalised cell viability (treatment time: 6 days) |
| --- | --- | --- |
| Cc1c(N)c(=O)n(-c2ccccc2)n1C [Ampyrone] | 1.02 ± 0.02 | 0.996 ± 0.013 |
| CCOC(=O)/C=C(C)/C=C/C=C(C)/C=C/c1c(C)cc(OC)c(C)c1C [Etretinate] | 1.01 ± 0.043 | 1.13 ± 0.071 |
| c1ccc(CNc2ncnc3nc[nH]c23)cc1 [Aminopurine, 6-benzyl] | 0.976 ± 0.01 | 1.02 ± 0.072 |
| CN1Cc2c(N)cccc2C(c2ccccc2)C1 (centres undefined) [Nomifensine maleate] | 1.13 ± 0.051 | 1.07 ± 0.087 |
| CC(C)(O)c1ccccc1CC[C@@H](SCC1(CC(=O)O)CC1)c1cccc(/C=C/c2ccc3ccc(Cl)cc3n2)c1 [Montelukast] | 1.01 ± 0.059 | 1.06 ± 0.065 |
| COc1c(N2CCNC(C)C2)c(F)cc2c(=O)c(C(=O)O)cn(C3CC3)c12 (centres undefined) [Gatifloxacin] | 1.02 ± 0.051 | 1.02 ± 0.037 |
| CCOC(=O)[C@@](C)(N)Cc1ccc(O)c(O)c1 [Methyldopate hydrochloride] | 0.931 ± 0.046 | 0.991 ± 0.043 |
| O=C(c1ccccc1)c1ccc2n1CCC2C(=O)O (centres undefined) [Ketorolac tromethamine] | 1.06 ± 0.075 | 1.06 ± 0.02 |
| CO/N=C(\C(=O)N[C@@H]1C(=O)N2C(C(=O)OC(C)OC(C)=O)=C(COC(N)=O)CS[C@H]12)c1ccco1 (some centres undefined) [Cefuroxime axetil] | 1.01 ± 0.057 | 1.04 ± 0.12 |
| COc1ccccc1OCC(O)COC(N)=O (centres undefined) [Methocarbamol] | 0.987 ± 0.04 | 1.05 ± 0.12 |
| Nc1ccn([C@@H]2CS[C@H](CO)O2)c(=O)n1 [Lamivudine] | 0.335 ± 0.012 | 0.406 ± 0.023 |
| Cc1cc(N)c2ccccc2[n+]1CCCCCCCCCC[n+]1c(C)cc(N)c2ccccc21 [Dequalinium dichloride] | 0.173 ± 0.013 | 0.191 ± 0.012 |
| NC1CCN(c2nc3c(cc2F)c(=O)c(C(=O)O)cn3-c2ccc(F)cc2F)C1 (centres undefined) [Tosufloxacin hydrochloride] | 1.01 ± 0.016 | 1.09 ± 0.024 |
| COC(=O)Nc1nc2cc([S+]([O-])c3ccccc3)ccc2[nH]1 (centres undefined) [Oxfendazol] | 0.74 ± 0.055 | 0.827 ± 0.05 |
| CCCOc1ccc(C(=O)OCCN(CC)CC)cc1N [Proparacaine hydrochloride] | 0.857 ± 0.1 | 0.953 ± 0.05 |
| CC[C@@H](CO)NCCN[C@@H](CC)CO [Ethambutol dihydrochloride] | 1.05 ± 0.058 | 1 ± 0.011 |
| C[C@]1(Cn2ccnn2)[C@H](C(=O)O)N2C(=O)C[C@H]2S1(=O)=O [Tazobactam] | 0.967 ± 0.064 | 0.933 ± 0.068 |
| CC(CN(C)C)C(C)(O)Cc1ccc(Cl)cc1 (centres undefined) [Clobutinol hydrochloride] | 1.08 ± 0.019 | 1.03 ± 0.07 |
| CC(=O)OCC(=O)[C@@]1(OC(C)=O)[C@@H](C)C[C@H]2[C@@H]3C[C@H](F)C4=CC(=O)C=C[C@]4(C)[C@@]3(F)[C@@H](O)C[C@@]21C [Diflorasone Diacetate] | 1.06 ± 0.074 | 1.08 ± 0.034 |
| C=CCOC(Cn1ccnc1)c1ccc(Cl)cc1Cl (centres undefined) [Enilconazole] | 0.985 ± 0.021 | 1.04 ± 0.013 |
| C#C[C@]1(O)CC[C@H]2[C@@H]3CCC4=CC(=O)CC[C@@H]4[C@H]3CC[C@@]21CC [Norgestrel-(-)-D] | 1.01 ± 0.033 | 1.16 ± 0.27 |
